This note sets out measurements from the BET-seq Pho4 binding data (Le et al. 2018).

The other results are listed elsewhere or left out. The energies were worked out here from pooled read counts, against the library average; single values are noisy.

In this assay the target is T1, Pho4 (S. cerevisiae) (UniProt P07270).
T1 sequence: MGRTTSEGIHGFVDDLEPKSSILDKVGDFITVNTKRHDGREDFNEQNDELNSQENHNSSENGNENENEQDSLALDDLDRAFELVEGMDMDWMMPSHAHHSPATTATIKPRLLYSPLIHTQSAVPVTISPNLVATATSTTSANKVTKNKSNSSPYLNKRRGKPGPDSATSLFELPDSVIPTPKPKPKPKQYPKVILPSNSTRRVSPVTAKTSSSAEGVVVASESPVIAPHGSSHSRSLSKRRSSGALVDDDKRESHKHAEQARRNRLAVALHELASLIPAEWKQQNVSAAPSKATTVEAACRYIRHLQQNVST
Description: relative binding free energy (BET-seq); higher = weaker binding. The conditions noted are these: reference: library average.
For TGTGGCACGTGGCAGC, the “relative binding free energy” value was -0.09 kcal/mol. With CTTAGCACGTGTAGTG the figure was 0.02 kcal/mol. On to ACTGACACGTGAAGGG, for which the “relative binding free energy” value is 0.39 kcal/mol. As for TACTACACGTGAGTGT, the “relative binding free energy” value was 0.33 kcal/mol.

For the sequence ATGGGCACGTGTACGT, the “relative binding free energy” value was -0.01 kcal/mol. In the case of AGTAGCACGTGTGATA it was -0.1 kcal/mol; in that of AGTGGCACGTGAGTTT, 0.23 kcal/mol. Regarding TCGGCCACGTGGTCGG, the “relative binding free energy” value is -0.09 kcal/mol. In the case of TGTGACACGTGATGGA it was 0.03 kcal/mol. With CTAGGCACGTGTGTTT the figure was -0.11 kcal/mol; with GATCGCACGTGGTTGG, 0.1 kcal/mol. AGTAACACGTGTGAGG: the “relative binding free energy” value is -0.09 kcal/mol. On to TCGGCCACGTGTTGTT, for which the “relative binding free energy” value was -0.01 kcal/mol. As for TGCCGCACGTGGGGAA, the “relative binding free energy” value is -0.1 kcal/mol.

As to ATAGTCACGTGGCGTC, the “relative binding free energy” value was 0.11 kcal/mol. As for ACGGGCACGTGGCGTT, the “relative binding free energy” value was -0.28 kcal/mol. Regarding ACTGGCACGTGTGGGA, the “relative binding free energy” value was found to be 0.1 kcal/mol.

For the sequence AGAAGCACGTGTTGGA, the “relative binding free energy” value was -0.06 kcal/mol. Turning to TTTTTCACGTGCTGCT, the “relative binding free energy” value was 0.24 kcal/mol.

For the sequence AGTTTCACGTGGCAGT, the “relative binding free energy” value was found to be 0.27 kcal/mol. With AGCGTCACGTGGAAGT, the “relative binding free energy” value is 0.08 kcal/mol. Take CTTTGCACGTGAAGGT: the “relative binding free energy” value came out at 0.26 kcal/mol. For the sequence AGGGTCACGTGTAGGT, the “relative binding free energy” value was determined as 0.11 kcal/mol.

On to AGTTTCACGTGGCTAA, for which the “relative binding free energy” value was found to be 0.27 kcal/mol. In the case of GTAAGCACGTGAGATG it was 0.16 kcal/mol; in that of GGGCTCACGTGGTGAA, 0.34 kcal/mol.

GGTATCACGTGTGGCT: the “relative binding free energy” value is 0.2 kcal/mol. As for CTTTTCACGTGGTTTG, the “relative binding free energy” value came out at 0.27 kcal/mol. As for TCTGACACGTGAAGGG, the “relative binding free energy” value stood at 0.31 kcal/mol. For the sequence TGTTTCACGTGTATGG, the “relative binding free energy” value was determined as 0.21 kcal/mol. In the case of TACTACACGTGTGTGG it was 0.19 kcal/mol; in that of GGAGTCACGTGATTAA, 0.22 kcal/mol; in that of TTTGACACGTGTTGAG, 0.07 kcal/mol. With TTTTCCACGTGTTCGG the figure was 0.02 kcal/mol; with AGTGTCACGTGCGGTT, 0.1 kcal/mol. In the case of TGGTCCACGTGTGGAA it was 0.06 kcal/mol; in that of TGGCGCACGTGCAGGG, -0.14 kcal/mol; in that of TGGAGCACGTGAAGGT, 0.16 kcal/mol. Turning to TGTTGCACGTGTGGAT, the “relative binding free energy” value was determined as 0.06 kcal/mol.

Consider TTGAGCACGTGGCGGG, for which the “relative binding free energy” value was -0.13 kcal/mol. With GGTTGCACGTGTCCTG, the “relative binding free energy” value amounted to 0.01 kcal/mol. On to ACGATCACGTGGGGTA, for which the “relative binding free energy” value was -0.08 kcal/mol. As for AAGGGCACGTGTTAGC, the “relative binding free energy” value amounted to 0.03 kcal/mol.

For the sequence TCATGCACGTGTGTGC, the “relative binding free energy” value is -0.04 kcal/mol. In the case of ATTGACACGTGATAGA it was 0.08 kcal/mol; in that of CTTTTCACGTGATTTG, 0.38 kcal/mol. With ATAGTCACGTGTTTCT the figure was 0.09 kcal/mol. On to TAGGGCACGTGTCACG, for which the “relative binding free energy” value was -0.09 kcal/mol. On to TTACACACGTGAAGTG, for which the “relative binding free energy” value came to 0.39 kcal/mol. Regarding TCTAGCACGTGTCGTG, the “relative binding free energy” value worked out at 0.07 kcal/mol. Turning to ACCAGCACGTGGGGGT, the “relative binding free energy” value was -0.23 kcal/mol.

For the sequence CTAAGCACGTGTATGT, the “relative binding free energy” value was -0.02 kcal/mol. On to ATTTTCACGTGAGTTT, for which the “relative binding free energy” value was 0.32 kcal/mol. For the sequence TATCTCACGTGGGTAG, the “relative binding free energy” value came out at 0.01 kcal/mol. For CGGATCACGTGGGGAT, the “relative binding free energy” value came out at 0.14 kcal/mol.

Turning to GTCATCACGTGTGGAG, the “relative binding free energy” value turned out to be 0.21 kcal/mol. Take GTTGTCACGTGCGAGG: the “relative binding free energy” value turned out to be 0 kcal/mol.

In the case of AGGGGCACGTGAATGT, the “relative binding free energy” value is 0.12 kcal/mol.

As to TGATCCACGTGTGAGG, the “relative binding free energy” value turned out to be 0.06 kcal/mol. In the case of AGAATCACGTGATGTA it was 0.24 kcal/mol; in that of GGGGACACGTGTCGGC, 0.11 kcal/mol. For the sequence TGGACCACGTGTTGGT, the “relative binding free energy” value is 0.1 kcal/mol.

AATGTCACGTGCTGAG: the “relative binding free energy” value amounted to 0.25 kcal/mol. For TATTTCACGTGGGGTG, the “relative binding free energy” value stood at 0.18 kcal/mol. TCTGTCACGTGTTTAG: the “relative binding free energy” value amounted to 0.19 kcal/mol.

For the sequence TGTATCACGTGTTTTA, the “relative binding free energy” value was 0.16 kcal/mol. On to ATAGGCACGTGGAAGG, for which the “relative binding free energy” value is -0.1 kcal/mol. With GATGACACGTGCGTGG, the “relative binding free energy” value worked out at 0.05 kcal/mol. As to TCACGCACGTGGGTTG, the “relative binding free energy” value is -0.29 kcal/mol. With GATGGCACGTGTTGAT, the “relative binding free energy” value was 0.04 kcal/mol. Turning to CTATACACGTGAGGGT, the “relative binding free energy” value turned out to be 0.13 kcal/mol. For TAGGGCACGTGAGTTT, the “relative binding free energy” value is 0.15 kcal/mol. Consider TGGACCACGTGTTTGG, for which the “relative binding free energy” value was found to be 0 kcal/mol. Regarding GTGGCCACGTGAGGGC, the “relative binding free energy” value came out at 0.06 kcal/mol. In the case of TGAGCCACGTGAGTGT it was 0.12 kcal/mol. Turning to GGTGGCACGTGATGGA, the “relative binding free energy” value came to 0.03 kcal/mol.

With AGTCACACGTGGGGGA, the “relative binding free energy” value is -0.24 kcal/mol. In the case of TGTGTCACGTGGTGCT it was -0.05 kcal/mol. As to AGGAGCACGTGGAGAG, the “relative binding free energy” value was -0.2 kcal/mol. TTATGCACGTGTGATT: the “relative binding free energy” value was -0.06 kcal/mol. Turning to TTGTGCACGTGCGTAA, the “relative binding free energy” value is -0.15 kcal/mol. With AAGGACACGTGGGTGA the figure was -0.21 kcal/mol; with CTTTGCACGTGCTTTG, -0.02 kcal/mol. GGAGACACGTGGTGGA: the “relative binding free energy” value was -0.18 kcal/mol.

In the case of TAAAACACGTGAAGGT, the “relative binding free energy” value was determined as 0.26 kcal/mol. Take AAGAGCACGTGTACGG: the “relative binding free energy” value is 0.02 kcal/mol. With CGGGGCACGTGTCTTG, the “relative binding free energy” value was -0.15 kcal/mol. Consider GTAGACACGTGTATTG, for which the “relative binding free energy” value turned out to be 0.08 kcal/mol. For the sequence TCAATCACGTGTTGAG, the “relative binding free energy” value came to 0.22 kcal/mol. In the case of GAGAGCACGTGATGTG it was 0.02 kcal/mol. In the case of AGCAGCACGTGGTTGG it was -0.08 kcal/mol; in that of CTTAGCACGTGAGTTG, 0.12 kcal/mol; in that of GTTTGCACGTGAATTA, 0.24 kcal/mol.

In the case of TGGCGCACGTGATGGG, the “relative binding free energy” value was found to be 0 kcal/mol. Turning to CAGTACACGTGGGGAG, the “relative binding free energy” value was -0.02 kcal/mol. In the case of TAGGTCACGTGAATTT it was 0.31 kcal/mol; in that of TTCGGCACGTGTACGG, -0.11 kcal/mol. With GCAAACACGTGTTGGT the figure was 0.07 kcal/mol. Turning to TGTAGCACGTGTATCA, the “relative binding free energy” value is -0.03 kcal/mol. Turning to AATATCACGTGAGTTG, the “relative binding free energy” value was 0.24 kcal/mol.

Regarding CGTAGCACGTGGCGCG, the “relative binding free energy” value is -0.14 kcal/mol. In the case of ATGCACACGTGGGTAT it was -0.18 kcal/mol; in that of AGATTCACGTGGAGTA, 0.33 kcal/mol; in that of AGTATCACGTGTGGAC, 0.24 kcal/mol. Turning to TTAGTCACGTGTAGGA, the “relative binding free energy” value amounted to 0.16 kcal/mol. For the sequence TGGAGCACGTGAATTT, the “relative binding free energy” value worked out at 0.16 kcal/mol. Take AGGGACACGTGTGGCT: the “relative binding free energy” value came to 0.07 kcal/mol. With TGTATCACGTGGGAAG the figure was 0.01 kcal/mol; with CGAGGCACGTGGGGTT, -0.21 kcal/mol; with TAATGCACGTGTGGCG, 0.01 kcal/mol. Turning to ACAGTCACGTGGGGGA, the “relative binding free energy” value is -0.2 kcal/mol. On to CTTTACACGTGGGTAG, for which the “relative binding free energy” value was -0.06 kcal/mol. TTTGTCACGTGACTGT: the “relative binding free energy” value was 0.11 kcal/mol. In the case of CGGGACACGTGGTGTG it was -0.1 kcal/mol; in that of TGTAGCACGTGGTGGT, -0.1 kcal/mol; in that of GTGATCACGTGGTGAG, 0.02 kcal/mol. For GTGTCCACGTGAGCTG, the “relative binding free energy” value was found to be 0.35 kcal/mol.

Turning to GATGTCACGTGCGGGC, the “relative binding free energy” value stood at 0.13 kcal/mol.

For GAGAGCACGTGATGGT, the “relative binding free energy” value stood at 0.15 kcal/mol. With TCGGGCACGTGGAGAG, the “relative binding free energy” value is -0.01 kcal/mol.

Turning to ATAGTCACGTGGTGAT, the “relative binding free energy” value is -0.04 kcal/mol.

For GGGACCACGTGGGTGT, the “relative binding free energy” value is -0.24 kcal/mol. TGAGTCACGTGAAGTT: the “relative binding free energy” value was 0.26 kcal/mol. With GTAATCACGTGTTACT, the “relative binding free energy” value amounted to 0.15 kcal/mol. For GTTGGCACGTGTTCGG, the “relative binding free energy” value was -0.03 kcal/mol. Take GGCTTCACGTGTGGGA: the “relative binding free energy” value worked out at 0.32 kcal/mol. TTTTGCACGTGGGATG: the “relative binding free energy” value was 0.02 kcal/mol.

Turning to GAGCGCACGTGGGTTT, the “relative binding free energy” value was -0.17 kcal/mol. With ACGATCACGTGGGGAG the figure was -0.01 kcal/mol; with GGTTTCACGTGGAGGA, 0.29 kcal/mol; with GGAAGCACGTGGCATG, -0.25 kcal/mol. As for AACGTCACGTGTTGTA, the “relative binding free energy” value amounted to 0.11 kcal/mol. On to GTTATCACGTGCTGTG, for which the “relative binding free energy” value is 0.1 kcal/mol.

With TGTTCCACGTGGGCAG, the “relative binding free energy” value is -0.13 kcal/mol. In the case of AGCTGCACGTGGGGTC, the “relative binding free energy” value is -0.24 kcal/mol.

As for ATTGGCACGTGACGGT, the “relative binding free energy” value came to 0.04 kcal/mol. As for ATCATCACGTGGATGT, the “relative binding free energy” value was -0.02 kcal/mol. TGCGGCACGTGGTAAA: the “relative binding free energy” value is -0.04 kcal/mol.

In the case of TCAGTCACGTGGGGTA, the “relative binding free energy” value was -0.18 kcal/mol. ATGTGCACGTGTAGGC: the “relative binding free energy” value is -0.1 kcal/mol. In the case of CGTGGCACGTGAGATG it was 0.13 kcal/mol; in that of CTGATCACGTGCTGTG, 0.19 kcal/mol; in that of GGGGTCACGTGGATAG, 0.05 kcal/mol. For TTGAGCACGTGGCTAT, the “relative binding free energy” value is -0.2 kcal/mol. Turning to TGCGGCACGTGGTGTG, the “relative binding free energy” value is -0.17 kcal/mol. Take AGCGTCACGTGTTCGG: the “relative binding free energy” value was -0.06 kcal/mol.
